Laboratory results from publication PMC10726135.
The list shows a part of the results. At the low end of the ranking the order means little. The protein was read in a cell extract, so binding may be indirect.

target: T1, HNF4alpha8 (COS-7 nuclear extract) (UniProt P41235-5); assay: protein-binding microarray; settings: COS-7 nuclear extract on double-stranded Agilent 4x180k PBM; binding buffer, salt, pH and temperature not given; high values mean tight binding; double strand, one strand shown; sequences stand for … in …GCCTAGGGAGATTAGAGTATCGGTCGA
T1 sequence: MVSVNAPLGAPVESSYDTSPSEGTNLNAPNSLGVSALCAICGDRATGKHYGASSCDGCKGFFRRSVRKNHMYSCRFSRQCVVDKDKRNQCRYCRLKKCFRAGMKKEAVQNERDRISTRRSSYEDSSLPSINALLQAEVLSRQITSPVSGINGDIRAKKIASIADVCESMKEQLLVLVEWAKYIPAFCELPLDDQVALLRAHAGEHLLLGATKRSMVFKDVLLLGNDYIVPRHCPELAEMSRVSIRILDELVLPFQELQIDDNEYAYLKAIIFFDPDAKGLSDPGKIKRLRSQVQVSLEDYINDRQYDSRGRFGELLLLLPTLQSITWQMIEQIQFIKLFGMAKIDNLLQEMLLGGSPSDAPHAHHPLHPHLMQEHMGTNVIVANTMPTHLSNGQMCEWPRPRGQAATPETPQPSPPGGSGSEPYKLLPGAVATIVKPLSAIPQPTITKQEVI

Sequence | binding signal (log2 normalized intensity)
TGCCCTGGACATATTTGTCTTCCTATCTCC | 0.97
TTACTTCCACATGTGGGGAAACTGGACTGT | 3.6
TATATGACTCTAGATTGTTTGTTCTTGCTA | -1.17
TTTTTGATTACCTTAGGGGGAAACAAAAGA | -1.16
TCTTCACCGTAAAGCCACCCCTTTCTCCTC | 3.29
TCACCCTCTCCACCCCCATGCAAGTTCCCA | 5.59
AGGATTTTATTCAGGTGGCCACTGGCCCAG | -0.981
TGCAACATACTGAAAAAGGGTTGTGCAAAC | 0.0709
ACAGGGAGTCTGTTGCAAGCAATGGAGAGG | -1.33
CGAAAGCCGGTTCCCGCCCAAGGAGACAGG | -1.22
CAAATATTAGAACAAACGACGCTCCTATCA | -1.17
ATTTCCAAAAGGTACCACTGTTTGCAGCTG | -1.34
GCAGCCTCCAAGATAAAGGGTCAGATTGTA | 1.96
TTCTGCTATCTGCCTGCAGGAGAGAGCAAA | -1.22
TTAACAAAATTCAACAAGACCCTGCCCTTT | 4.08
CCTGGAATGACAAGAATTGGAACCCTGCTG | -0.884
AGGTCAACTGCCCTCTCAAATTACAAGGAG | -0.902
TTCGGGGCACTGCTCCCTGCCCCTACCCCC | 5.02
CCTTAAGAGTTAATAACAGACCATGCCATG | -1.27
CAAAGCATAGCAAGAGTGACCTTTGCTCCA | 9
TCAGACTGGTGTAGTGGGGAGGGCATGGAC | 0.343
TGTCTGCTGAGAGATTCCTCTGCACAATAA | -0.694
CTATGGAACATGGACTTTGAACCTCTCTTC | 9.09
TCCAAAGTCCAGGTGCTTTCTTCTTGATCA | 2.62
TGCCCTGGGTAAACAGACCTCTCTCTCCCC | 2.02

Sequence | binding signal (log2 normalized intensity)
AGATAACAAGGGCATGTAAAGGAGATTATC | -1.03
GCAGGCCCATCTGGGACTTCAAAGCGCAGC | -1.33
CCCAGACTGAATCACACTACTGGCTTTTCT | -1.29
TTCCACACAGGTTATCTCATTACTCTGCAT | -1.04
CAGCAGATAAGGCTAATCCTTACACAGCAG | -1.32
TTGCATGGTTGACATACTTCTGAGTTTTAT | 1.68
TTGTTTACCTTGGTGTTTCTTTGATGTGAA | 1.88
CAGTCTAAAGTAAATACCATTAGGGGGCAA | 1.71
AGTATTTAGCTTCCTCCCTTGGAATGTGAC | 1.84
GCTTGGCAAACATTTCACTTTGCTCCCTCC | 2.18
ATTGCCGACCTCATGAGTAGAGAGCAATCA | -0.943
CAGCTTTTATGTCAAACCACTTCCCCTTTC | 1.98
CCTGTTTGCTTCTGCTGTTTGTTTCACTAA | 1.09
TGTCAGCTAGAGGCCCTGCATTAAACAAGA | -1.31
TCACTGACCTCTGCCCTACTGTATATCCTG | 2.89
ACTTTGGTGGCTTTTGCTGACATGCTCTTG | 0.777
TCTCAAGTTCAGTCTTTATTGGTACGTTCC | 1.33
CTCCCCCAGGCGACTGGGCCAGGAGCAGGA | 2.92
AAACTTTATCTCCCTTGCTTTATCCGACCA | 0.31
TTGAGGTTCACTGGGGAGACTCTCTCTCCT | -0.788
ATCTAAGGGCCTAGAAGAGTTCCTGACAAT | -1.3
TAACAGCTTCTGTTCGCAGACCTGCCAAAG | -1.3
GTGGGGGAGGAGACAGCTACGGAATGCTTC | -1.39
ATTCAGAACTTTGACCACCTACTGTTTGTG | 2.47
TGGCTCATTTTGGGCATCTGCAGGGCAGCA | -1.29

Sequence | binding signal (log2 normalized intensity)
AGCGGCCTTCCCCTTTTTCTGTAAAGCTTT | 0.737
TTGCTCCCTGGGAACCCCTCCAGCATTCTC | 2.3
ACACACAATAAGGACTTTGGACCGTCTTGT | 8.19
CCTCAGTAAATGCTGGAGATGAGGCTCAGA | -1.32
GCACACAAAAAAAACCACTCTTATCAGGCC | -1.33
CCAGAGTAACTATGGGGCAAAGTGCAAGCA | 4.93
GGGCCTTTCCAGCAAATCCCAATTCACTGA | -1.38
TCAGCAGAGGACAGAAGAAGGAAAAGGCCT | -1.27
AGGCCTTCCTATCTCTACTTGCCGAAACAT | 1.12
CCATGACCTTTGTACTAATGATTTGTAAAT | 6.03
GAACTCTAAGCAGCGAAGCTGTGTCAGGCA | -1.29
GTGTGGCTTCCAAGGGGAATGTGGATGCTG | -1.31
TTCCAGCCAAACCAGGTCATGCATTCTGCT | -1.19
TGAACGACTTGACAAAGGTCATTCATGTGC | 4.32
AGTAAAACTGGAAAATCAAAGACTCAGATG | -1.37
AAGTAGTCAGTGTCCAGCACACCTTTTTTT | -0.328
TGTCATCCTTTTGCTTAAAACGCCTGCAGA | -1.39
TCAAAGGCAGCCTTCGTTTGCTTTTCCTTA | -1.05
TCTTCAGAGAGTCTGGCTGACTAACAAGCT | -1.24
ATTCCAGAGAAGCACATCCAGGCAGCTTCA | -1.26
ATGCCCCTCCCAGGGACACATGCCCCTTCC | 5.63
ATCCAGTCCTCACCCAGAACTTTGACCGTT | 5.26
GTACTTTTCTGTTTGTCTTACTGTGTTGTC | 1.95
